In the antibiotic and cytotoxicity screens of Wong et al. (2023):
The list shows a part of the results.

Tests used:
[1] = tested on: HSkMC (human skeletal muscle cells); experiment: cytotoxicity call (relative viability < 0.9); conditions: 10 µM
[2] = tested on: S. aureus RN4220; experiment: growth inhibition call (relative growth <= 0.2); conditions: 50 µM

Structure (SMILES) | cytotoxicity call [1] | growth inhibition call [2]
C[C@@H]1CN([C@@H](C)CO)C(=O)c2cccc(NC(=O)c3cnccn3)c2O[C@H]1CN(C)C(=O)Nc1ccc2c(c1)OCO2 | inactive | inactive
O=C1CN(c2ccccc2)C(=O)N1 | inactive | inactive
CC(=O)N1CCN(c2ccc(OCC3COC(Cn4ccnc4)(c4ccc(Cl)cc4Cl)O3)cc2)CC1 (stereo not drawn) | inactive | inactive
O=C(C[C@@H]1CC[C@H]2[C@@H](COC[C@H](O)CN2S(=O)(=O)c2cccc(F)c2)O1)NCc1ccc(Cl)c(Cl)c1 | inactive | inactive
Cn1cnc(CCNC(=O)C[C@H]2CC[C@H]3[C@@H](COC[C@H](O)CN3C(=O)C3CC3)O2)c1 | inactive | inactive
C[C@H](CO)N1C[C@H](C)[C@@H](CN(C)C(=O)Nc2ccc(F)cc2)OCCCC[C@H](C)Oc2ccc(NC(=O)Nc3ccc(C(F)(F)F)cc3)cc2C1=O | inactive | inactive
CON=C(C(=O)NC1C(=O)N2C(C(=O)[O-])=C(CSc3nc(=O)c([O-])nn3C)CSC12)c1csc(N)n1.O.O.O.[Na+].[Na+] (stereo not drawn) | inactive | inactive
COCC#Cc1ccc([C@@H]2[C@@H](CO)N3C(=O)CN(C(=O)CN4CCOCC4)C[C@H]23)cc1 | inactive | inactive
C[C@H]1CN([C@@H](C)CO)C(=O)c2cc(NC(=O)Nc3ccccc3)ccc2O[C@H]1CN(C)Cc1ccc(C(=O)Nc2ccccc2N)cc1 | inactive | inactive
C[C@H]1CN([C@@H](C)CO)C(=O)c2cccc(NC(=O)Nc3cccc4ccccc34)c2O[C@@H]1CN(C)S(=O)(=O)c1cccs1 | active | inactive
Nc1cc(=O)nc(C(F)(F)F)[nH]1 | inactive | inactive
Cc1sccc1-c1csc(N)n1 | inactive | inactive
Cc1noc(C)c1NC(=O)Nc1ccc2c(c1)C(=O)N([C@H](C)CO)C[C@H](C)[C@@H](CN(C)Cc1ccc(Cl)c(Cl)c1)OCCCC[C@H](C)O2 | inactive | inactive
C=C/C=C/[C@@H]1C(=C)CN2[C@H]1[C@H](Cc1ccccc1)OC(=O)[C@@H]2Cc1ccc(-n2cc(COc3ccccc3/C=C(C)/C=C/C(=O)NO)nn2)cc1 | inactive | inactive
Cc1ccc(S(=O)(=O)N(C)C[C@H]2Oc3ccc(NC(=O)CCN4CCOCC4)cc3CC(=O)N([C@H](C)CO)C[C@@H]2C)cc1 | inactive | inactive
C[C@H](CO)N1C[C@H](C)[C@H](CN(C)S(=O)(=O)c2ccc(F)cc2)OCCCC[C@H](C)Oc2ccc(NS(=O)(=O)c3cn(C)cn3)cc2C1=O | inactive | inactive
Cc1ccc(S(=O)(=O)N(C)C[C@H]2Oc3ccc(NC(=O)Nc4ccc(C(F)(F)F)cc4)cc3CC(=O)N([C@H](C)CO)C[C@@H]2C)cc1 | active | inactive
COC(=O)[C@@H](C)S(=O)(=O)NC(=O)c1cnc2ccccn2c1=O | inactive | inactive
C[C@@H]1CCCCO[C@@H](CN(C)Cc2ccc(C(F)(F)F)cc2)[C@H](C)CN([C@H](C)CO)C(=O)c2cc(NS(=O)(=O)c3cn(C)cn3)ccc2O1 | inactive | inactive
COc1ccc(NC(=O)Nc2ccc3c(c2)C(=O)N([C@@H](C)CO)C[C@H](C)[C@@H](CN(C)Cc2ccc(Cl)c(Cl)c2)O3)cc1 | inactive | inactive

Structure (SMILES) | cytotoxicity call [1] | growth inhibition call [2]
Cc1noc(C)c1S(=O)(=O)Nc1ccc2c(c1)C(=O)N([C@H](C)CO)C[C@@H](C)[C@H](CN(C)CC1CC1)O2 | inactive | inactive
C[C@H](CO)N1C[C@H](C)[C@H](CN(C)C(=O)Cc2ccccc2)OCCCC[C@H](C)Oc2ccc(NS(=O)(=O)c3ccc(Cl)cc3)cc2C1=O | inactive | inactive
C[C@@H]1CN([C@H](C)CO)C(=O)Cc2cc(NC(=O)Nc3cccc4ccccc34)ccc2O[C@H]1CN(C)Cc1ccncc1 | inactive | inactive
C[C@H](CO)N1C[C@H](C)[C@H](CN(C)S(=O)(=O)c2ccc3c(c2)OCCCO3)OCc2cnnn2CCCC1=O | inactive | inactive
CC(C)NC(=O)Nc1ccc2c(c1)CC(=O)N([C@H](C)CO)C[C@@H](C)[C@@H](CN(C)S(=O)(=O)c1ccccc1)O2 | inactive | inactive
C[C@H]1CCCCO[C@H](CN(C)S(=O)(=O)c2cn(C)cn2)[C@@H](C)CN([C@@H](C)CO)C(=O)c2cc(NC(=O)CCCN(C)C)ccc2O1 | inactive | inactive
C[C@@H]1CN([C@H](C)CO)C(=O)c2cccc(NS(=O)(=O)c3ccc(Cl)cc3)c2O[C@H]1CN(C)Cc1ccc(-c2ccccc2)cc1 | inactive | inactive
COc1ccc(C(N)=O)cc1 | inactive | inactive
COc1cc(C=CC(=O)O)cc(OC)c1O | inactive | inactive
C[C@@H]1CN([C@@H](C)CO)C(=O)c2cccc(NC(=O)CCCCCC(=O)Nc3ccccc3N)c2O[C@H]1CN(C)Cc1ccc(-c2ccccc2)cc1 | inactive | inactive
CN1CCN2c3ccccc3Cc3ccccc3C2C1.Cl (stereo not drawn) | inactive | inactive
COc1cccc(CN(C)C[C@@H]2OCc3ccccc3-c3c(n(C)c4ccccc34)C(=O)N([C@@H](C)CO)C[C@H]2C)c1 | inactive | inactive
C[C@H]1CN([C@@H](C)CO)C(=O)c2cccc(NC(=O)c3ccc(-c4nccs4)cc3)c2O[C@@H]1CN(C)Cc1ccc(-c2ccccc2)cc1 | inactive | inactive
C[C@@H]1CCCCO[C@@H](CN(C)C(=O)Cc2ccccc2)[C@H](C)CN([C@@H](C)CO)C(=O)c2cc(NS(=O)(=O)c3ccc(F)cc3)ccc2O1 | inactive | inactive
CC(C)NC(=O)Nc1cccc2c1O[C@@H](CN(C)Cc1ccc3c(c1)OCO3)[C@@H](C)CN([C@@H](C)CO)C2=O | inactive | inactive
C[C@H]1CN([C@@H](C)CO)C(=O)Cc2cc(NC(=O)Cc3ccccc3)ccc2O[C@@H]1CN(C)Cc1ccc(Oc2ccccc2)cc1 | inactive | inactive
COc1ccc([Si](C)(C)[C@H]2[C@H](CCn3cc(CCO)nn3)O[C@@]3(C(=O)N(C)c4ccccc43)[C@@H]2C)cc1 | inactive | inactive
CNC[C@H]1Oc2ccc(NS(=O)(=O)c3cn(C)cn3)cc2CC(=O)N([C@@H](C)CO)C[C@H]1C | inactive | inactive
C[C@@H]1CN([C@H](C)CO)C(=O)c2cccc(NC(=O)C3CCCCC3)c2O[C@H]1CN(C)Cc1ccc(C(=O)Nc2ccccc2N)cc1 | inactive | inactive
C[C@H](CO)N1C[C@H](C)[C@H](CN(C)S(C)(=O)=O)Oc2ccc(NC(=O)Cn3cnnn3)cc2CC1=O | inactive | inactive

Structure (SMILES) | cytotoxicity call [1] | growth inhibition call [2]
CC(C)NC(=O)N(C)C[C@H]1Oc2c(NC(=O)Nc3ccc4c(c3)OCO4)cccc2C(=O)N([C@H](C)CO)C[C@H]1C | inactive | inactive
C[C@@H]1CN([C@@H](C)CO)C(=O)c2cc(NS(=O)(=O)c3cccs3)ccc2O[C@@H](C)CCCCO[C@H]1CN(C)Cc1ccc2c(c1)OCO2 | inactive | inactive
C[C@H](CO)N1C[C@H](C)[C@@H](CN(C)S(=O)(=O)c2ccc(Cl)cc2)Oc2ccc(NC(=O)C3CC3)cc2CC1=O | inactive | inactive
C[C@@H]1CN([C@@H](C)CO)C(=O)c2cccc(NS(=O)(=O)c3ccccc3)c2O[C@@H]1CN(C)S(=O)(=O)c1ccccc1 | inactive | inactive
O=P(O)(O)CN1CCN(CP(=O)(O)O)CCN(CP(=O)(O)O)CCN(CP(=O)(O)O)CC1 | inactive | inactive
COC(=O)C(CC#Cc1ccc2c(c1)[C@]1(C(=O)N2)[C@H](c2ccc(OCCO)cc2)N2[C@H](c3ccccc3)[C@H](c3ccccc3)OC(=O)[C@H]2[C@@H]1C(=O)Nc1nc2ccccc2s1)C(=O)OC | inactive | inactive
C[C@@H]1CCCCO[C@H](CN(C)Cc2ccc(Cl)c(Cl)c2)[C@H](C)CN([C@@H](C)CO)C(=O)c2cc(NC(=O)NC3CCCCC3)ccc2O1 | inactive | inactive
C[C@@H]1CN([C@@H](C)CO)C(=O)c2cc(NS(=O)(=O)c3ccc(F)cc3)ccc2O[C@@H](C)CCCCO[C@H]1CN(C)S(=O)(=O)c1ccc(Cl)cc1 | inactive | inactive
COc1ccc(NC(=O)Nc2ccc3c(c2)C(=O)N([C@H](C)CO)C[C@@H](C)[C@@H](CN(C)C(=O)c2ccccc2)OCCCC[C@H](C)O3)cc1 | inactive | inactive
CCCN(C)C[C@H]1OCCCC[C@@H](C)Oc2ccc(NC(=O)Cc3ccccc3)cc2C(=O)N([C@H](C)CO)C[C@H]1C | inactive | inactive
C[C@@H]1CN([C@H](C)CO)C(=O)CCCn2cc(nn2)CO[C@H]1CN(C)S(=O)(=O)c1ccc2ccccc2c1 | inactive | inactive
CC(=O)N(C)C[C@H]1Oc2ncc(C#C[C@H](C)O)cc2C(=O)N([C@@H](C)CO)C[C@H]1C | inactive | inactive
O=C(O)Cc1ccc(O)c(O)c1 | inactive | inactive
COCC(=O)N(C)C[C@@H]1Oc2cc(C#C[C@H](C)O)ccc2S(=O)(=O)N([C@@H](C)CO)C[C@@H]1C | inactive | inactive
C[C@H]1CN([C@@H](C)CO)C(=O)Cc2cc(NS(=O)(=O)c3cccs3)ccc2O[C@@H]1CN(C)S(=O)(=O)c1cn(C)cn1 | inactive | inactive
CC(C)CC#Cc1ccc2c(c1)O[C@@H](CN(C)S(=O)(=O)c1ccc(F)cc1)[C@@H](C)CN([C@H](C)CO)S2(=O)=O | inactive | inactive
C[C@@H]1CN([C@@H](C)CO)C(=O)c2cc(NC(=O)Nc3ccc4c(c3)OCO4)ccc2O[C@@H](C)CCCCO[C@H]1CN(C)Cc1ccc2c(c1)OCO2 | inactive | inactive
COc1ccc2c(c1)c(CC(=O)OCC(=O)O)c(C)n2C(=O)c1ccc(Cl)cc1 | inactive | inactive
CC(C)NC(=O)Nc1ccc2c(c1)C(=O)N([C@@H](C)CO)C[C@H](C)[C@H](CN(C)S(=O)(=O)c1ccc(F)cc1)O2 | inactive | inactive
